Measurements published in PubChem BioAssay AID488969 (Vanderbilt High Throughput Screening Facility, 2010).
The full ranking holds about 110,000 compounds; the median of “z-score” is about -0.1, and the highest 2% start at about 2. The list shows a part of the results. The source made the active and inactive calls.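 How the source made its calls: active means z-score in the third read window above 3 or below -3; inactive means the rest.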

target: Metabotropic glutamate receptor 8 (Rattus norvegicus) (UniProt P70579); assay: mGluR8 Gi/Go-coupled signaling modulation – cell-based, rat, thallium flux, HTS, primary screen (AID 488969); conditions: HEK293 rat mGluR8, GIRK (G protein-gated inwardly rectifying potassium channel) thallium flux, FluoZin2; at 10 µM; stronger effect = higher value; submaximal glutamate (EC20) added with thallium
UniProt P70579, sequence (P70579 whole entry, looked up): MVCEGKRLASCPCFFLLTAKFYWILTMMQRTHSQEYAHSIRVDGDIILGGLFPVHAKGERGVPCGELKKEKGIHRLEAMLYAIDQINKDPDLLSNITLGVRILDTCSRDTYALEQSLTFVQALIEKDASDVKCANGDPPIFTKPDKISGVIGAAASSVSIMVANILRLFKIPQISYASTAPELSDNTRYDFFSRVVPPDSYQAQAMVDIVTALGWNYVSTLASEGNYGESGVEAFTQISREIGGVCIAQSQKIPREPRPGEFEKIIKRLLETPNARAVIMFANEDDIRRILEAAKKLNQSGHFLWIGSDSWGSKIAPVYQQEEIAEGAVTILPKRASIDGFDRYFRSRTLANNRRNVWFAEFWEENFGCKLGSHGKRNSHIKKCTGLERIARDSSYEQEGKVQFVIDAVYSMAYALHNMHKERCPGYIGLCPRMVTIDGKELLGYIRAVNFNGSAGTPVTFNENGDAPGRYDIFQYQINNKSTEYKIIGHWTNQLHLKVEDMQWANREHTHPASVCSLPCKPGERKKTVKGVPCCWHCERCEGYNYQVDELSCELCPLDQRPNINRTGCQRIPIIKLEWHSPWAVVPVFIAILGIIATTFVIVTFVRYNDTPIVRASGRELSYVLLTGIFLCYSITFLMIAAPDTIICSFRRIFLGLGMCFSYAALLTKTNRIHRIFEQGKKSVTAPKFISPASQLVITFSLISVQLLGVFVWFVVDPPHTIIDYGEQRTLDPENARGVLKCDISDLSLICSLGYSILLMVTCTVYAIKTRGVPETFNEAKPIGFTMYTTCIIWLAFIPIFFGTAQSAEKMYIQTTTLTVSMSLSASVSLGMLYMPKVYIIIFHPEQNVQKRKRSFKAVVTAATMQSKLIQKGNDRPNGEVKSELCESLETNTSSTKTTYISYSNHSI

Structure (SMILES)	z-score
CCOC(=O)C1=C(C)NC(=O)NC1c1ccc2c(c1)OCO2 (configuration not stated)	-0.161
Cn1c(-c2ccccc2)cnc1SCC(=O)N1CCCc2ccccc21	-0.333
Cn1c(/C=N/NC(=O)c2ccccc2Br)nc2ccccc21	-0.216
O=C1C2CC=C(Cl)CC2C(=O)N1CCc1c[nH]c2ccccc12 (configuration not stated)	0.173
CC(=O)c1ccc(Sc2ccc(C(C)=O)cc2)cc1	-0.316
COc1cccc(-c2cc(C(=O)Nc3c(C)nn(Cc4ccccc4)c3C)no2)c1	-0.515
O=[N+]([O-])c1ccccc1OCCCCN1CCCCC1	0.0447
c1ccc(N=P(c2nc3ccccc3o2)(N2CCOCC2)N2CCOCC2)cc1	0.113
CCOC(=O)N1CCN(C(=O)CSCC(=O)Nc2nc(-c3ccc(C)cc3)cs2)CC1	-0.166
Cc1noc(NS(=O)(=O)c2ccc(NC(=O)CCC3CCCC3)cc2)c1C	-0.241
O=C(Nc1ccc2c(c1)OCO2)Oc1ccccc1	0.125
CCn1c(N2CCN(CC(=O)c3ccc(OC)cc3)CC2)nc2ccccc21	-0.715
N#Cc1cc(-c2ccccc2)c[nH]c1=O	-0.286
O=C(COc1ccc(Cl)cc1)NCc1nnc(SCC(=O)N2CCCc3ccccc32)o1	-0.183
C/C(=N\OC(=O)Nc1ccc(Cl)cc1)c1ncc(C(F)(F)F)cc1N1CCOCC1	0.345
CC(NS(=O)(=O)c1ccc(OCC(=O)N2CCOCC2)c(Cl)c1)c1ccccc1 (configuration not stated)	0.573
Cc1nc(-c2cccc(N)c2)cs1	-0.00349
CCCc1nn(C)c(C(=O)Nc2ccc(Cl)cc2)c1Cl	-0.344
Cn1cccc1/C=C1\CCC/C(=C\c2cccn2C)C1=O	-1.22
Cc1ccc2nc(SCC(=O)Nc3cc(C(C)(C)C)nn3-c3ccccc3)[nH]c2c1	-0.605
CC(C)NC(=S)N/N=C/c1ccc2c(c1)OCCO2	1.16
COCc1nnc(NS(=O)(=O)c2c(C)cc(C)cc2C)s1	0.0171
CCCN(CCC)CC(O)COc1ccc([N+](=O)[O-])cc1 (configuration not stated)	-0.273

Structure (SMILES)	z-score
Cc1ccc(NC(=O)COc2ccc(Br)cc2CO)cc1	-0.489
O=C(NC1CCCC1)C1CCN(c2nccs2)CC1	0.382
Cc1nn(-c2cccc(C(=O)O)c2)c(C)c1Oc1ccccc1O	-0.445
COc1ccccc1NC(=O)COC(=O)c1cnccn1	-0.931
CCN1C(=O)/C(=C\C=C2/C=CC=CN2CC)SC1=S	-0.449
Cc1[nH]c(=S)[nH]c(=O)c1Cc1ccccc1	0.196
CN(C)S(=O)(=O)N1CCN(S(=O)(=O)c2ccccc2)CC1	-0.177
O=c1c(C(c2c(O)nc3n(c2=O)CCS3)c2cccc3ccccc23)c(O)nc2n1CCS2	0.0224
COc1ccc(C)cc1NC(=O)C(OC(=O)CNC(=O)c1cccc(F)c1)c1ccccc1 (configuration not stated)	-0.268
Nc1cccc(NC(=O)c2cccs2)c1	-0.248
Cc1cc(C(=O)COC(=O)CC2Sc3ccccc3NC2=O)c(C)n1-c1cccc(C(F)(F)F)c1 (configuration not stated)	0.332
COc1ccccc1NC(=S)NCc1ccco1	0.152
CCCN(CCC)S(=O)(=O)c1ccc(C(=O)Nc2ccc(OCC(=O)N3CCOCC3)cc2)cc1	-0.573
CCOC(=O)c1ccc(NC(=S)N(CCCN2CCCC(C)C2)Cc2ccco2)cc1 (configuration not stated)	0.882
CCCS(=O)(=O)N1CCN(C(=O)c2cccs2)CC1	-0.122
CCOc1ccc2nc(SCC)[nH]c2c1	1.32
CCc1nnc(NC(=O)CSc2nnc(C)n2Cc2ccccc2)s1	-0.029
Cc1cc(N2C(=O)C(O)=C(C(=O)c3cccs3)C2c2ccccc2)no1 (configuration not stated)	-1.48
COC(=O)c1nc2cc3c(cc2c(C)c1C(=O)OC)OCO3	-0.352
O=C(Nc1ccc(Nc2ccccc2)cc1)C(Cl)(Cl)Cl	-0.286
O=C(NCCCCNC(=O)c1c(F)c(F)c(F)c(F)c1F)c1c(F)c(F)c(F)c(F)c1F	-0.0446
COc1ccccc1-n1c(=O)[nH]c2c(C(N)=O)nc(CC(C)C)nc21	0.621
CC(C)=CCC(C)(C)C1OCCN1C(=O)c1ccccc1 (configuration not stated)	-0.122

Structure (SMILES)	z-score
S=c1[nH]nc(-c2ccco2)n1/N=C/C=C/c1ccco1	-0.366
COc1ccc(CN2C(=O)c3cccnc3C2Nc2cc(Cl)c(OC)cc2OC)cc1 (configuration not stated)	0.435
CCNC1=C(Cl)C(=O)c2ccccc2C1=O	1.01
COc1ccccc1-n1c(SCC(=O)N2CCCCC2)nnc1-c1ccccc1O	-0.514
CCCCS(=O)(=O)NC1=NCN(CCOC(=O)c2ccccc2)CN1	-0.135
CC(C)CCOCC1CC2(CC(C)(c3csc(N)n3)OC2=O)C(=O)O1 (configuration not stated)	0.393
Cc1ccc(-c2ccc(=O)n(CCC(=O)NCc3ccccn3)n2)cc1	-0.554
Cc1cc(C(C)(C)C)ccc1OCCCCN1CCCC1	0.298
CCn1c(=O)n(CC(=O)N2CC(C)CC(C)C2)c(=O)c2ccccc21 (configuration not stated)	-0.15
CCn1c(SCc2ccc(C(=O)Nc3nccs3)cc2)nnc1-c1ccc(N)cc1	1.08
COC(=O)c1ccc(CSc2ccc3nnc(-c4cccc(F)c4)n3n2)o1	-0.901
COc1ccc(OC)c(-n2nnnc2SCC(=O)O)c1	0.608
O=C(CCC(NC(=O)OCc1ccccc1)C(=O)OCC(=O)N1CCCCC1)OCC(=O)N1CCCCC1 (configuration not stated)	0.254
O=C(Nc1nc(-c2ccccn2)cs1)c1ccc(Br)s1	active: 12.3
CC1(C(=O)O)CC(C)(C(=O)O)CC(C)(C(=O)O)C1 (configuration not stated)	0.139
CN(C)S(=O)(=O)N1CCN(c2cc(Cl)ccc2Cl)CC1	0.268
COCCNC(=O)NC(=O)COC(=O)Cc1ccc2c(c1)OCCO2	0.0261
C/C(=N\OCC(=O)NC12CC3CC(CC(C3)C1)C2)c1cc2ccccc2o1	0.0142
CCCC/C(O)=C1\C(=O)CC(C)(C)CC1=Nc1ccc(OC)cc1	-1.72
CC(=O)N1CCN(CC(=O)Nc2ccccc2Sc2ccccc2)CC1	1.16
O=C(CNS(=O)(=O)c1ccc(Br)s1)Nc1ccc2c(c1)OCCO2	0.264
CC(/C=C/c1ccccc1)=N\NC(=O)C1CC1(C)c1ccccc1 (configuration not stated)	0.5
Oc1c(Cl)cc(Cl)c2c1NCCC2	active: 5.54

Structure (SMILES)	z-score
Nc1nc(SCC(=O)NCCC(c2ccccc2)c2ccccc2)n[nH]1	-0.272
CCc1c(O)nc(SC2CC(=O)N(c3ccccc3)C2=O)[nH]c1=O (configuration not stated)	-0.148
COCCn1c(C)cc(C(=O)CSc2nncn2-c2ccccc2)c1C	1.04
O=C(CSCc1nc2ccccc2[nH]1)Nc1ccc(Oc2ccccc2)cc1	-0.12
c1ccc(-c2cc(CSc3nc4ccccc4[nH]3)on2)cc1	0.11
Cc1[nH]c2ccccc2c1/C=N/NC(=O)CNC(=O)c1ccc2c(c1)OCO2	0.371
COc1ccc(S(=O)(=O)NCc2csc(C)n2)cc1	-0.594
CCC(=O)Nc1ccccc1-c1nnn(CC(=O)N2c3ccccc3CC2C)n1 (configuration not stated)	-1.96
Cc1[nH]c2ccccc2c1C(=O)C(=O)N1CCCc2ccccc21	0.143
Cc1sc2ncnc(Sc3nc4ccccc4s3)c2c1C	0.269
CCC(C(=O)Nc1ccccc1C(=O)N1CCOCC1)N1C(=O)c2ccccc2C1=O (configuration not stated)	0.202
COc1ccc(NC(=S)Nc2ccc3nc(C)c(C)nc3c2)cc1	-0.104
Cc1cc(C)cc(OCC(=O)OCC(=O)NCc2cccs2)c1	-0.709
Cc1ccc(C2=CSC3=NS(=O)(=O)CCN23)cc1C	0.215
OC(COc1ccc2c(c1)CCC2)Cn1cnc2ccccc21 (configuration not stated)	0.6
Cc1nc2ccc(-n3ccc(=O)cc3)cc2s1	0.24
O=C(Nc1ccc([N+](=O)[O-])cc1)Nc1nc(-c2ccc(Cl)s2)cs1	-0.228
O=C(CNC(=O)C1COc2ccccc2O1)N/N=C/c1ccc(O)cc1O (configuration not stated)	0.15
CCOCCCNS(=O)(=O)c1ccc2c(c1)oc(=O)n2CC(=O)OCC	0.0519
COc1ccc(CCNC(=O)NC23CC4CC(CC(C4)C2)C3)cc1OC	-0.338
O=C(Cn1cnc2scc(-c3ccc(F)cc3)c2c1=O)N1CCOCC1	0.204
CN1C(=O)/C(=N/OC(=O)c2ccccc2)c2ccccc21	-0.405
COc1ccccc1NC(=O)C/C(N)=N/O	-0.207

Structure (SMILES)	z-score
O=C(c1cc2sccc2n1Cc1ccccc1)N1CCN(c2nc3ccccc3s2)CC1	0.0366
Cc1ccc(/C=C/C(=O)O)cc1S(=O)(=O)N(C)CCO	0.702
CCc1c(C(=O)N/N=C/c2ccc(C)o2)csc1C	-1.55
COc1ccc(OC)c(NC(=O)c2sc3nc(Cc4ccccc4)cc(C(F)(F)F)c3c2N)c1	-0.894
COc1ccc(C2NC(=O)NC(C)=C2C(=O)OCc2ccc3c(c2)OCO3)cc1OC (configuration not stated)	-0.256
COc1ccc(OCCNC(=O)c2cccc(Oc3ccc(C(F)(F)F)cc3[N+](=O)[O-])c2)cc1	-0.158
Cc1ccc(NC(=O)c2ccccc2CCc2ccccc2)c(C)c1	-0.313
CC(=O)Nc1c(NCC(C)C)c2ccccc2oc1=O	-0.00889
O=C(CCCn1c(=S)[nH]c2cc3c(cc2c1=O)OCO3)N1CCN(c2ccc(F)cc2)CC1	-0.237
CCOc1ccc(N=c2scc(-c3ccc(OC)cc3)n2CCO)cc1	-0.113
COc1cccc(/C=N/NC(=O)c2cc(-c3cccn3C)n[nH]2)c1	-0.0314
COc1cc(NC(=O)NCCN2CCN(c3ccc(Cl)cc3)CC2)ccc1C	0.588
CC1CC(C)CN(C(=O)COC(=O)CCc2nc3ccccc3c(=O)[nH]2)C1 (configuration not stated)	-0.21
CCOc1ccc(N2C(=O)/C(=C/c3cccs3)N(C)C2=S)cc1	-0.138
CC(C(=O)Nc1sc2c(c1C(=O)NCC1CCCO1)CCC2)N1C(=O)c2ccccc2C1=O (configuration not stated)	-1
O=C(NNC(=O)C1CCCO1)c1ccc(Br)cc1 (configuration not stated)	-0.0366
Cc1cc(NC(=O)COc2ccc(Cl)cc2Cl)n(-c2ccccc2)n1	active: 12.2
COc1cc(C(=O)Nc2cc(Cl)ccc2C)c(-n2cnnn2)cc1OC	0.269
O=C1Nc2ccccc2C12Nc1ccccc1S2 (configuration not stated)	-0.475
COc1ccc(/C=N\NC(=O)c2nn(C)cc2Cl)cc1CN1CCOCC1	-0.182
